Experimental findings from a collection of fitness landscapes (doi:10.1038/s41467-024-54723-y) are described below.

The full ranking holds about 18,000 sequences; the median of “TetR repression strength (sort-seq, GFP reporter)” is about 0.23, and the highest 2% start at about 0.68. Some of the results follow.

UniProt P04483, sequence (P04483 whole entry): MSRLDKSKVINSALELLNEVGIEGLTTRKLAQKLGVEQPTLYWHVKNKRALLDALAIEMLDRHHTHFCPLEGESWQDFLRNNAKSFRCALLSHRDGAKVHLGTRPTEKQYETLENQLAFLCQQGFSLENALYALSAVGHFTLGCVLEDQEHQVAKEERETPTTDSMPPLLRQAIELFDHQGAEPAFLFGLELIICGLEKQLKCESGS

The assay concerns the target TetR (class B, Tn10) (UniProt P04483). As to the kind of experiment: TetR repression strength (sort-seq, GFP reporter) (relative to tetO2 = 1); higher = stronger repression. Conditions: E. coli. In short, it runs like this:
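E. coli SIG10-MAX carried a low-copy plasmid library with eight randomized operator positions between a constitutive promoter and sfGFP, with TetR constitutively expressed. Cells grew 5 h at 37 °C in LB with 50 µg/mL chloramphenicol, then 10^6 cells were FACS-sorted into 13 fluorescence bins, each Illumina-sequenced. Repression strength is the top bin index plus one minus the read-weighted mean bin, divided by the wild-type operator value. Three independent transformations; variants with ≥30 reads in all replicates and CV ≤0.5 were averaged.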
As for TCCCGATCAGTAGGGGAGA, the TetR repression strength was 0.171.

TCCCTCGCAGTGGGGGAGA displayed a TetR repression strength of 0.2. TCCCTAACAGTTGAGGAGA came in with a TetR repression strength of 0.254. TCCCGAGGAGTCTTGGAGA yielded a TetR repression strength of 0.203.

The sequence TCCCTTCTAGTTTACGAGA yielded a TetR repression strength of 0.46.

For TCCCGCCCAGTTACTGAGA, the TetR repression strength was determined as 0.272. Next, TCCCCGGCAGTTTTTGAGA: 0.3; TCCCAAGAAGTCGTAGAGA: 0.265; TCCCAGGTAGTGATTGAGA: 0.139. Under TCCCTTTCAGTGACAGAGA stands 0.578; under TCCCCATAAGTACTAGAGA, 0.346; under TCCCGAGAAGTATCGGAGA, 0.145.

Turning to TCCCCGTCAGTGTGCGAGA, the TetR repression strength worked out at 0.333. Next, TCCCCTCGAGTGTGTGAGA: 0.125.

As to TCCCTGCGAGTATAGGAGA, the TetR repression strength is 0.249. As for TCCCCGTAAGTCCCTGAGA, the TetR repression strength came out at 0.401. Under TCCCCATGAGTTCTTGAGA stands 0.207; under TCCCGCCAAGTCAGAGAGA, 0.2; under TCCCGCGGAGTACGCGAGA, 0.188. Next, TCCCTTTCAGTATTAGAGA: 0.518; TCCCAGAGAGTTATCGAGA: 0.285; TCCCGGGCAGTGGACGAGA: 0.259.

As for TCCCGGAGAGTGACGGAGA, the TetR repression strength was determined as 0.356. Sequence TCCCTTAGAGTGGTAGAGA returned a TetR repression strength of 0.695.

With TCCCTGCAAGTCGGAGAGA, the TetR repression strength worked out at 0.268. Under TCCCTTAAAGTACACGAGA stands 0.377. In the case of TCCCCGAAAGTGTGGGAGA, the TetR repression strength was found to be 0.138. Under TCCCGCAAAGTTCACGAGA stands 0.198; under TCCCAATCAGTAATGGAGA, 0.363; under TCCCTATTAGTGGACGAGA, 0.263.

Sequence TCCCCTTGAGTGTGGGAGA registered a TetR repression strength of 0.161. Next, TCCCATATAGTGGGTGAGA: 0.0558; TCCCATCAAGTGTACGAGA: 0.28; TCCCCAACAGTCGCGGAGA: 0.104. Next, TCCCATTGAGTTTTAGAGA: 0.423; TCCCGCACAGTGTACGAGA: 0.132; TCCCAGGCAGTCTAGGAGA: 0.387. Take TCCCGGTCAGTTATAGAGA: the TetR repression strength is 0.554.

On to TCCCGTCCAGTTTAGGAGA, for which the TetR repression strength amounted to 0.253. Under TCCCGTTAAGTTTCGGAGA stands 0.153. Under TCCCCTGAAGTTATCGAGA stands 0.396; under TCCCAAGTAGTTGGGGAGA, 0.476. TCCCCTGTAGTCGCTGAGA: the TetR repression strength amounted to 0.0433.

Sequence TCCCCGTTAGTGGATGAGA registered a TetR repression strength of 0.171. Next, TCCCTTTGAGTAAAGGAGA: 0.0355; TCCCGCTTAGTGAAAGAGA: 0.023. The sequence TCCCACGGAGTGTACGAGA came in with a TetR repression strength of 0.3. Next, TCCCGGAAAGTACTGGAGA: 0.131. Under TCCCAAGTAGTTGGTGAGA stands 0.774; under TCCCGAGTAGTCACGGAGA, 0.486. Under TCCCACGCAGTGCAGGAGA stands 0.529. TCCCGTTTAGTGATCGAGA had a TetR repression strength of 0.244. Regarding TCCCGTACAGTCTTAGAGA, the TetR repression strength stood at 0.146. Under TCCCGTATAGTAGTGGAGA stands 0.0786; under TCCCTAAGAGTTGTGGAGA, 0.155; under TCCCTGAGAGTATTGGAGA, 0.147. Under TCCCGTTTAGTCCGCGAGA stands 0.114; under TCCCACTTAGTGTGAGAGA, 0.178; under TCCCTCGTAGTTGAGGAGA, 0.161. Under TCCCCAGTAGTGCGTGAGA stands 0.144; under TCCCCGAGAGTAGAGGAGA, 0.132. The sequence TCCCCTATAGTATGAGAGA gave a TetR repression strength of 0.348.

Regarding TCCCCCTGAGTAGCGGAGA, the TetR repression strength came out at 0.102. Next, TCCCCTGAAGTACATGAGA: 0.151; TCCCGCAAAGTGCGGGAGA: 0.193. Next, TCCCGGACAGTTGGCGAGA: 0.277; TCCCTGGCAGTGTTCGAGA: 0.419; TCCCTCGAAGTGCGGGAGA: 0.25. As for TCCCTGCAAGTTTGTGAGA, the TetR repression strength is 0.586. Under TCCCTGTCAGTTCATGAGA stands 0.326; under TCCCAGGCAGTATGGGAGA, 0.148; under TCCCAATAAGTACATGAGA, 0.0585.

Sequence TCCCGACCAGTTTTCGAGA came in with a TetR repression strength of 0.185. Under TCCCGGCTAGTGGGCGAGA stands 0.0419; under TCCCTGGCAGTTATTGAGA, 0.387; under TCCCCGTTAGTACAAGAGA, 0.34. Under TCCCCACCAGTCCGGGAGA stands 0.207. Under TCCCGTGAAGTACAAGAGA stands 0.268; under TCCCCCATAGTTCGGGAGA, 0.238. As to TCCCAGCGAGTTACAGAGA, the TetR repression strength is 0.238.

As for TCCCGAAGAGTCGGAGAGA, the TetR repression strength turned out to be 0.227. Under TCCCGCGAAGTCAGAGAGA stands 0.382; under TCCCGTACAGTTACTGAGA, 0.394. Next, TCCCATTAAGTTCCAGAGA: 0.313. Next, TCCCCTTAAGTGGCCGAGA: 0.19.

TCCCTATTAGTGTGAGAGA registered a TetR repression strength of 0.251. Sequence TCCCGCTCAGTCATCGAGA had a TetR repression strength of 0.121.

TCCCAGTAAGTCATCGAGA yielded a TetR repression strength of 0.307. Under TCCCGGCTAGTTAGCGAGA stands 0.485; under TCCCGATAAGTTTACGAGA, 0.495. Under TCCCACAGAGTTAAAGAGA stands 0.207. Next, TCCCCATTAGTACGTGAGA: 0.214; TCCCTGGCAGTAATCGAGA: 0.221; TCCCCGAGAGTGTGGGAGA: 0.152.

In turn, TCCCTATCAGTAGTTGAGA gave a TetR repression strength of 0.558. Under TCCCGGCAAGTGGTAGAGA stands 0.192.

Sequence TCCCCACGAGTGTGGGAGA gave a TetR repression strength of 0.115. Under TCCCTTCGAGTTTAAGAGA stands 0.0638. Under TCCCGGTTAGTCAAGGAGA stands 0.318. Next, TCCCTGATAGTGAGTGAGA: 0.217; TCCCTTCAAGTTGGAGAGA: 0.114; TCCCGGCCAGTTGGCGAGA: 0.0551. The sequence TCCCGTCTAGTTTGGGAGA came in with a TetR repression strength of 0.0524. Next, TCCCGGGTAGTGACTGAGA: 0.252; TCCCGATGAGTTCAAGAGA: 0.433. Consider TCCCCTCCAGTGAAGGAGA, for which the TetR repression strength came out at 0.572. Next, TCCCAATTAGTTTAAGAGA: 0.236; TCCCGAATAGTTTGTGAGA: 0.535. TCCCGCAAAGTGGATGAGA came in with a TetR repression strength of 0.227. Under TCCCGGGGAGTGATTGAGA stands 0.343.

Take TCCCTCCGAGTGGGGGAGA: the TetR repression strength came out at 0.0155.

As to TCCCATCAAGTATTTGAGA, the TetR repression strength worked out at 0.635. In turn, TCCCGGAGAGTTGGGGAGA registered a TetR repression strength of 0.207. Sequence TCCCAACTAGTATGTGAGA yielded a TetR repression strength of 0.329. In turn, TCCCCTCTAGTGACGGAGA had a TetR repression strength of 0.136. Next, TCCCAGAAAGTGTCTGAGA: 0.239. With TCCCGACGAGTTCTGGAGA, the TetR repression strength worked out at 0.239. Under TCCCAGGAAGTTCCAGAGA stands 0.276; under TCCCTGGAAGTGGAAGAGA, 0.188. As for TCCCATCAAGTGGCAGAGA, the TetR repression strength was 0.618.

The sequence TCCCCATCAGTGGAGGAGA registered a TetR repression strength of 0.0881. On to TCCCAGGAAGTAGACGAGA, for which the TetR repression strength worked out at 0.186. Under TCCCGGGTAGTGTTTGAGA stands 0.498; under TCCCATCAAGTGCTTGAGA, 0.355.

Sequence TCCCTGTGAGTGGAGGAGA yielded a TetR repression strength of 0.209. Next, TCCCCAACAGTGATTGAGA: 0.344; TCCCCGCGAGTGATGGAGA: 0.0206. Next, TCCCAGTCAGTTGTGGAGA: 0.296. Next, TCCCGGACAGTCGCTGAGA: 0.222; TCCCCAGGAGTCGGAGAGA: 0.179.
